Values marked as one replicate rest on one cluster of the flow cell; about a third of the high ones do not repeat.
Tested on: ATP
Assay: switch fluorescence ratio, 500 uM ATP over buffer (Cy3 cluster intensity, sum of 5 cycles each) (fold (ratio)); higher = stronger signal-on switching upon ATP binding; sequences stand for … in TCGTCGGCAGCGTCAGATGTGTATAAGAGACAGTTTTTTTTTTTTTTTTTTTTTTTTT…TC
Details: aptamer strand: ATP DNA aptamer (quencher-CACCTGGGGGAGTATTGCGGAGGAAGG + anchor), 100 nM annealed; ATP concentration: 500 uM; one replicate
Outline: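 For every switch-domain sequence, the fluorescence ratio is the mean of per-cluster values, each being summed target-cycle Cy3 intensity over summed buffer-cycle Cy3 intensity. Clusters outside 100-1000 RFU were excluded. On a modified Illumina MiSeq flow-cell, the Cy3-labelled switching-strand clusters were annealed to 100 nM quencher-labelled ATP aptamer, imaged in selection buffer and then after 15 min with 500 uM ATP at 22 °C. Five such cycles were run, with NaOH stripping and re-annealing between them.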
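Further: ATP exposure 15 min at 22 °C before imaging.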

Row | Sequence | switch fluorescence ratio
1 | TCTCGTACAA | 1.13
2 | TCTCGTATCC | 0.989
3 | TCTCGTTAAG | 1.02
4 | TCTCGTTTTC | 0.965
5 | TCTCTAAATC | 2.23
6 | TCTCTAGTAG | 1.01
7 | TCTCTCAGGG | 1.07
8 | TCTCTCCTAT | 1.15
9 | TCTCTCTATC | 1.06
10 | TCTCTGGGGT | 1.06
11 | TCTCTTAAT | 1.02
12 | TCTGAATTGA | 0.987
13 | TCTGACTAGG | 0.997
14 | TCTGAGGCCT | 0.982
15 | TCTGAGGGAG | 1.04
16 | TCTGAGGGT | 0.972
17 | TCTGATATCC | 1.02
18 | TCTGATCTTT | 1.15
19 | TCTGATGTT | 1.02
20 | TCTGCACCCG | 1.07
21 | TCTGCCGATG | 1
22 | TCTGCGAAT | 3.5
23 | TCTGCGACAA | 1.39
24 | TCTGCTGACG | 1.05
25 | TCTGCTTTTT | 1.06
26 | TCTGGCATCA | 0.983

Row | Sequence | switch fluorescence ratio
27 | TCTGGCGTCT | 1.03
28 | TCTGGGAGCG | 0.984
29 | TCTGGGAGTG | 0.999
30 | TCTGGGCAGT | 1.04
31 | TCTGGGCCCG | 1.02
32 | TCTGGTGTGA | 0.978
33 | TCTGGTGTTG | 0.976
34 | TCTGGTTTAG | 0.987
35 | TCTGTACATA | 1.08
36 | TCTGTCATCG | 1.06
37 | TCTGTCTTTG | 0.986
38 | TCTGTGAAGT | 0.985
39 | TCTGTGACGG | 1
40 | TCTGTGATTG | 0.997
41 | TCTGTGGGGT | 0.961
42 | TCTGTGTAAA | 0.972
43 | TCTGTTCCGT | 0.973
44 | TCTGTTGAGG | 1.01
45 | TCTGTTGGAT | 0.971
46 | TCTGTTTACC | 1
47 | TCTTAACGTT | 0.968
48 | TCTTAACTCA | 1.02
49 | TCTTAAGATG | 0.995
50 | TCTTAAGTTG | 1.01
51 | TCTTAATCGC | 1
52 | TCTTACTACC | 1.34

Row | Sequence | switch fluorescence ratio
53 | TCTTACTAGT | 0.993
54 | TCTTACTCGG | 1.12
55 | TCTTAGGAAA | 0.919
56 | TCTTAGGAG | 0.95
57 | TCTTAGGAGC | 1.05
58 | TCTTAGTAAA | 0.967
59 | TCTTATGGGC | 0.989
60 | TCTTCAATTT | 1.06
61 | TCTTCACCCG | 1.44
62 | TCTTCACTGA | 1.03
63 | TCTTCGATAA | 1.13
64 | TCTTCGTATA | 1.28
65 | TCTTCTTCTG | 1.03
66 | TCTTCTTGGA | 1.01
67 | TCTTGAATTG | 0.97
68 | TCTTGCGCAT | 1.86
69 | TCTTGCTCAT | 0.997
70 | TCTTGCTTG | 0.985
71 | TCTTGGGCCT | 1.07
72 | TCTTGGTGTC | 0.985
73 | TCTTGTATCT | 0.975
74 | TCTTTAACTG | 1.01
75 | TCTTTCACCC | 1.05
76 | TCTTTCGAAA | 2.74
77 | TCTTTCGAGT | 1.05
78 | TCTTTCTTAC | 1.1

Row | Sequence | switch fluorescence ratio
79 | TCTTTGGCAG | 3.92
80 | TCTTTGGTC | 0.969
81 | TCTTTGTGTG | 1.01
82 | TCTTTTAGTT | 0.989
83 | TCTTTTATTG | 1
84 | TCTTTTCTCA | 1.05
85 | TGAAAAATA | 1.6
86 | TGAAAATTAT | 0.995
87 | TGAAACGCCA | 1.11
88 | TGAAACTCTG | 1.11
89 | TGAAAGGAAA | 1.07
90 | TGAAAGGGAC | 1.06
91 | TGAAAGTTAT | 0.985
92 | TGAACTGTGT | 0.996
93 | TGAAGACCAG | 0.948
94 | TGAAGAGCC | 1.01
95 | TGAAGAGGCT | 1.05
96 | TGAAGCACAT | 1.45
97 | TGAAGCAGAA | 1.3
98 | TGAAGCCGTG | 1.15
99 | TGAAGCGCAA | 4.7
100 | TGAAGCTAGT | 0.993
101 | TGAAGGAAG | 1

— the supplement of paper PMC10126150
